Our source for the activity change, negative = inhibition values is PubChem BioAssay AID1745853 (National Center for Advancing Translational Sciences (NCATS), 2022).

What all share (assay): Primary Screen for Target Class Profiling of Small Molecule Inhibitors of Methyltransferases
Assay [1] addresses Glycine N-methyltransferase (Homo sapiens) (UniProt Q14749). Conditions: purified enzyme, MTase-Glo SAH luminescence; measured here: GNMT inhibition; at 40 µM; stronger effect = lower value. Summed up: (§1)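 Each enzyme was reacted with SAM and its substrate, with compounds tested once at 40 uM; SAH formed was read by MTase-Glo luminescence.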
The target of assay [2] is Guanidinoacetate N-methyltransferase (Homo sapiens) (UniProt Q14353). Conditions: purified enzyme, MTase-Glo SAH luminescence; measured here: GAMT inhibition; at 40 µM; stronger effect = lower value. Summed up: as §1
The target of assay [3] is Histamine N-methyltransferase (Homo sapiens) (UniProt P50135). Particulars: purified enzyme, MTase-Glo SAH luminescence; measured here: HNMT inhibition; at 40 µM; stronger effect = lower value. The method in brief: as §1
In assay [4] the target is Nicotinamide N-methyltransferase (Homo sapiens) (UniProt P40261). Particulars: purified enzyme, MTase-Glo SAH luminescence; measured here: NNMT inhibition; at 40 µM; stronger effect = lower value. Summed up: as §1
The target of assay [5] is Phenylethanolamine N-methyltransferase (Homo sapiens) (UniProt P11086). Conditions: purified enzyme, MTase-Glo SAH luminescence; measured here: PNMT inhibition; at 40 µM; stronger effect = lower value. Summed up:
as §1

Where “and” joins values, the source holds several entries; their conditions need not be identical. Equal entries are not always repeated. The list shows a part of the results. Further columns of the screen follow, without active or inactive calls.
% is scaled to controls: 0 for no effect and ±100 for the full control effect.

Regarding `Cc1ccccc1CCN1C(=O)c2cc3ccccc3n2CC1(C)C(=O)NCCC(C)C` (stereo not drawn), the activity change, negative = inhibition in assay [1] was -4.98%; in assay [2], 0.693%; in assay [3], -6.3%; in assay [4] it was -9.41%; in assay [5] it was -9.34%.
For `CCN(CCCNC(=O)CCc1nnc2n(Cc3ccc(F)cc3)c(=O)c3ccccc3n12)c1cccc(C)c1` the same measures were -4.5%, 4.33%, -0.827%, 0.175% and -3.46%.
Consider `COCCN1CC(CO)C2(CCN(C3CCC3)CC2)C1` (stereo not drawn), for which the activity change, negative = inhibition in assay [1] was -3.35%; in assay [2], -3.82%; in assay [3] it was -7.13%; in assay [4], -6.81%; in assay [5], -0.716%.
For the compound `CC1(C(=O)NC2CCCC2)Cn2c(ccc2-c2ccco2)C(=O)N1C1CC1` (stereo not drawn), the activity change, negative = inhibition was 6.36% in assay [1]; 0.368% in assay [2]; 7.95% in assay [3]; 14.7% in assay [4]; 4.43% in assay [5].
Regarding `COc1cc(/C=C(\C#N)C(N)=O)cc(CSc2nc3ccccc3s2)c1O`, the figures for the activity change, negative = inhibition in assay [2], in assay [4] and in assay [5] were -0.69%, -17.8% and 2.99%, respectively.
As for `CC(=O)c1ccc(OCC(=O)N2CCCCC2)cc1`, the activity change, negative = inhibition in assay [1] is -7.66%; in assay [2] it was -11.3%; in assay [3], 3.73%; in assay [4], -14.6%; in assay [5] it was -3.7%.
Turning to `COCCNC(=O)c1ccc(OC2CCN(Cc3ccc(OC)cc3F)CC2)c(Cl)c1`, the activity change, negative = inhibition in assay [1] was -5.05%; in assay [2], 0.39%; in assay [3], -20.1%; in assay [4] it was -5.53%; in assay [5], -0.357%.
As to `O=C(CCc1nnc2n(CCc3ccccc3)c(=O)c3ccccc3n12)NCc1ccccc1Cl`, the activity change, negative = inhibition in assay [1] is -11.4%; in assay [2] it was -5.68%; in assay [3], -6.56%; in assay [4] it was -13.9%; in assay [5], -19.4%.
For `C=CC(C)(O)CC/C=C(\C)C(=O)OC1CC2(C(=O)O)CCC3(C)C(=CCC4C5(C)CCC(OC6OC(COC7OCC(O)C(O)C7O)C(O)C(OC7OCC(O)C(O)C7O)C6OC6OC(CO)C(O)C(O)C6OC6OCC(O)C(O)C6O)C(C)(C)C5CCC43C)C2CC1(C)C` (stereo not drawn) the same measures were 3.63%, 19.4%, 11.5%, 1.37% and 10%.
The matching figures for `C[C@H]1[C@@H]2[C@@H](O)C([C@H](C)C(=O)N3CCCC3)CC[C@@]2(C)CC[C@@H]1NC(=O)Nc1cccc(F)c1` (stereo partly drawn): 2.19%, 2.14%, 1.16%, -0.491% and 3.77%.
The matching figures for `C=CC(C)(O)CC/C=C(\C)C(=O)O[C@@H]1[C@@H](O)[C@H](OC(C)(C=C)CC/C=C(\C)C(=O)O)O[C@H](CO)[C@H]1OC(=O)/C(C)=C/CCC(C)(O)C=C` (stereo partly drawn): -0.712%, 5.15%, 4.99%, -7.61% and 4.02%.
In the case of `CC(C)Cn1c(=O)c2ccccc2n2c(CCC(=O)N3CCN(C4CCCCC4)CC3)nnc12`, the activity change, negative = inhibition in assay [1] is -9.88%; in assay [2], 6.31%; in assay [3], -21.7%; in assay [4], -19.4%; in assay [5] it was -2.23%.
As to `C=C1C[C@]23C[C@H]1CC[C@H]2[C@]1(C)CCC[C@@]2(CO)C(=O)O[C@H]([C@H]21)[C@@H]3O`, the activity change, negative = inhibition is 0% in assay [1]; 4.96% in assay [2]; 10.3% in assay [3]; -9.51% in assay [4]; 0.279% in assay [5].
`CN1C(=O)c2cc(C(=O)NCc3ccccc3Cl)nn2CC1(C)C(=O)NC1CCCC1` (stereo not drawn): the activity change, negative = inhibition in assay [1] was 3.08%; in assay [2] it was 4.99%; in assay [3] it was -2.47%; in assay [4], 6.64%; in assay [5], 1.59%.
As for `CC1=CC(=O)CC(C)(CO)C1(O)/C=C/C(C)O[C@@H]1O[C@H](CO)[C@@H](O)[C@H](O)[C@H]1O` (stereo partly drawn), the activity change, negative = inhibition in assay [1] was 4.99%; in assay [2], 0.843%; in assay [3], 8.75%; in assay [4], -6.88%; in assay [5], -1.45%.
As for `CC1=C(CC(=O)O)c2cc(F)ccc2C1=Cc1ccc(S(C)(=O)=O)cc1`, the activity change, negative = inhibition in assay [1] was -17.7%; in assay [2], -3.94%; in assay [3], 10.2%; in assay [4], -13.3%; in assay [5], -0.697%.
As to `C#Cc1cccc(Nc2nc3cc(C(=O)O)ccc3c3cncnc23)c1`, the activity change, negative = inhibition in assay [1] was -28.1%; in assay [2], -11.6%; in assay [3], -26.7%; in assay [4], -22.9%; in assay [5] it was -24.6%.
As to `CCCn1c(=O)c2cc(Cl)ccc2n2c(SCC(=O)Nc3ccc(OC)c(OC)c3)nnc12`, the activity change, negative = inhibition is 3.24% in assay [1]; 6.05% in assay [2]; 6.16% in assay [3]; 0.016% in assay [4]; 4.58% in assay [5].
Turning to `Cc1ccccc1Cn1nc2n(CCC(C)C)c(=O)c3ccccc3n2c1=O`, the activity change, negative = inhibition in assay [1] is 5.93%; in assay [2] it was 1.59%; in assay [3], 6.82%; in assay [4], -1.04%; in assay [5], 6.16%.
For `CC1(C)C2CC[C@@]34CC(CC[C@H]3[C@]2(C)CC[C@@H]1O[C@@H]1O[C@H](CO)[C@@H](O)[C@H](O)[C@H]1O)[C@](C)(O)C4` (stereo partly drawn) the same measures were 7.51%, 7.22%, 8.79%, -6.13% and 2.87%.
For `Nc1ncnc2c1nc(N)n2[C@@H]1O[C@H](CO)[C@@H](O)[C@H]1O`, the activity change, negative = inhibition in assay [1] stood at 94.5%; in assay [2] it was 177%; in assay [3] it was 26.3%; in assay [4], 178%; in assay [5], 51.2%.
Regarding `CCC(C(=O)NC1CC1)n1ccc2cc(S(=O)(=O)N3CCCCC3)ccc21` (stereo not drawn), the activity change, negative = inhibition worked out at 2.37% in assay [1]; 3.66% in assay [2]; 5.29% in assay [3]; 4.05% in assay [4]; 3.58% in assay [5].
The matching figures for `Cc1ccc(Cl)cc1N1C(=O)c2cc(-c3cccs3)nn2CC1(C)C(=O)NC1CCCCC1` (stereo not drawn): 4.98%, 0%, 8.2%, 12% and 4.91%.
As for `CC1(NC(=O)C2CC2)CN(Cc2nc(-c3ccccc3OCc3ccccc3)cs2)C1`, the activity change, negative = inhibition in assay [1] was -6.98%; in assay [2], -6.64%; in assay [3], -10.8%; in assay [4], -13.7%; in assay [5], -1.3%.
As for `O=C(c1cccs1)N1CCC2(CC1)CN(C1CCC1)CC2CO` (stereo not drawn), the activity change, negative = inhibition in assay [1] is -5.25%; in assay [2] it was -8.67%; in assay [3], -5.03%; in assay [4] it was -12.8%; in assay [5], -5.72%.
For `CCCCNC(=O)c1ncn2c1C(=O)N(CCC)C(C)(C(=O)NCCC(C)C)C2` (stereo not drawn), the activity change, negative = inhibition in assay [1] came to 3.95%; in assay [2] it was 0.505%; in assay [3], 7.87%; in assay [4] it was 8.43%; in assay [5] it was 9.47%.
Regarding `COc1ccccc1CNc1nc2c(-c3cccc(Br)c3)nnn2c2ccccc12`, the activity change, negative = inhibition was -9.41% in assay [1]; 0.03% in assay [2]; -1.76% in assay [3]; -8.72% in assay [4]; -7.1% in assay [5].
With `O=C(Cn1nc(-c2ccccc2)c2ccccc21)N1CCN(c2ccccc2F)CC1`, the activity change, negative = inhibition was -7% in assay [1]; 0% in assay [2]; -4.24% in assay [3]; 0.306% in assay [4]; -2.85% in assay [5].
Regarding `COc1cccc(Nc2cc(C(=O)NCc3cccnc3)c3c(c2)ncn3C)c1`, the activity change, negative = inhibition was -8.87% in assay [1]; -1.61% in assay [2]; -39.3% in assay [3]; -9.59% in assay [4]; -8.32% in assay [5].
For `CCOc1ccc(NC(=O)N2Cc3c(sc4c3CCCC4)-n3cccc3C2c2ccccc2)cc1` (stereo not drawn), the activity change, negative = inhibition in assay [1] is -0.596%; in assay [2], 0%; in assay [3], 0.42%; in assay [4], -1.76%; in assay [5], 1.6%.
For `C/C=C(\C)C(=O)O[C@H]1C=CC(=O)O[C@H]1/C=C/[C@@H](O)[C@H](C)O` the same measures were -1.13%, -7.66%, 4.18%, -16.4% and 0.602%.
The matching figures for `CC1(C(=O)NC2CCCCC2)Cn2c(cc3occc32)C(=O)N1Cc1cccc(F)c1` (stereo not drawn): 4.26%, 0.585%, 5.91%, 3.89% and 5.59%.
In the case of `CCC1CCCCN1S(=O)(=O)c1ccc2c(c1)n(C)c(=O)n2C` (stereo not drawn), the activity change, negative = inhibition is -2.63% in assay [1]; 2.29% in assay [2]; -9.42% in assay [3]; -15.8% in assay [4]; -10.6% in assay [5].
Regarding `COc1ccc(-c2cc3n(n2)CC(C)(C(=O)NCc2ccccc2)N(c2ccc(C(C)C)cc2)C3=O)cc1` (stereo not drawn), the activity change, negative = inhibition in assay [1] stood at 8.01%; in assay [2], 0%; in assay [3], 9.84%; in assay [4], 11.3%; in assay [5], 1.57%.
For the compound `CC(C)(C)[C@]1(O)CCN2C[C@H]3c4ccccc4CCc4cccc(c43)[C@@H]2C1`, the activity change, negative = inhibition in assay [1] is 0.471% and -8.64%; in assay [2], 14.7% and 18.2%; in assay [3], -15.4% and -26.6%; in assay [4], -7.54% and -10.4%; in assay [5], 5.15% and 5.54%.
On to `Nc1nc2[nH]c(=O)cnc2c(=O)[nH]1`, for which the activity change, negative = inhibition in assay [1] is -8.03%; in assay [2], -2.16%; in assay [3], -3.12%; in assay [4] it was -10.4%; in assay [5] it was -0.185%.
